Measurements from the supplement of paper PMC4967469.
pIC50: −log10 of the molar value. A lower IC50 marks a more sensitive line; fits outside the tested doses are given as limits. AUC sums up the same curve from the lowest dose to the 256-fold higher top dose; the more sensitive the line, the further below 1. For some assays here: The top dose, if marked as inferred, comes from the curve model; the source does not state it.

Experiments:
Test in all cases: Viability of human cancer cell lines after 72 h of drug (GDSC screen)
ABT-263 = compound: CC1(C)CCC(c2ccc(Cl)cc2)=C(CN2CCN(c3ccc(C(=O)NS(=O)(=O)c4ccc(N[C@H](CCN5CCOCC5)CSc5ccccc5)c(S(=O)(=O)C(F)(F)F)c4)cc3)CC2)C1 [ABT-263]; settings: top dose 2 µM; top dose inferred
Experimental: (§1)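 Human cancer cell lines in 384-well plates, medium with 10% serum, drug for 72 h over a 256-fold dose range (nine 2-fold or five 4-fold steps up to the top dose). Adherent lines were fixed and stained with the nucleic acid dye Syto60, suspension lines read with resazurin; signal relative to control wells, capped at 0 and 100%. One two-parameter sigmoid per drug and line, fitted in a mixed model over all curves with the slope shared within a line.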

piperlongumine = compound: COc1cc(/C=C/C(=O)N2CCC=CC2=O)cc(OC)c1OC [piperlongumine]; settings: top dose 10 µM
Experimental: as §1

PIK-93 = compound: CC(=O)Nc1nc(C)c(-c2ccc(Cl)c(S(=O)(=O)NCCO)c2)s1 [PIK-93]; settings: top dose 20 µM
Experimental: as §1

GW 441756 = compound: Cn1cc(/C=C2\C(=O)Nc3cccnc32)c2ccccc21 [GW 441756]; settings: top dose 2 µM; top dose inferred
Experimental: as §1

Row | Cell Line | AUC (ABT-263) | pIC50 (ABT-263) | AUC (piperlongumine) | pIC50 (piperlongumine) | AUC (PIK-93) | pIC50 (PIK-93) | AUC (GW 441756) | pIC50 (GW 441756)
1 | MFE-319 (endometrium, adherent) | 0.884 | < 5.70 | 0.826 | 5.24 | 0.884 | < 4.70 | – | –
2 | MKN1 (stomach, adherent) | 0.981 | < 5.70 | 0.732 | 5.53 | 0.88 | < 4.70 | – | –
3 | MKN45 (stomach, adherent) | – | – | 0.964 | < 5.00 | 0.937 | < 4.70 | 0.956 | < 5.70
4 | Mewo (melanoma, adherent) | – | – | 0.749 | 5.42 | 0.937 | < 4.70 | 0.941 | < 5.70
5 | NCI-H292 (lung adenocarcinoma, adherent) | – | – | 0.648 | 5.75 | 0.484 | 5.95 | 0.92 | < 5.70
6 | NCI-H441 (lung adenocarcinoma, adherent) | – | – | 0.832 | < 5.00 | 0.962 | < 4.70 | 0.981 | < 5.70
7 | NCI-H522 (lung adenocarcinoma, adherent) | 0.929 | < 5.70 | 0.77 | 5.34 | 0.848 | 4.72 | – | –
8 | NCI-H2029 (small cell lung carcinoma, adherent) | – | – | 0.861 | 5.15 | 0.947 | < 4.70 | 0.975 | < 5.70
9 | NCI-H2030 (lung adenocarcinoma, adherent) | 0.958 | < 5.70 | 0.77 | 5.36 | 0.787 | 5.00 | – | –
10 | NCI-H2066 (small cell lung carcinoma, adherent) | 0.889 | < 5.70 | 0.953 | < 5.00 | – | – | – | –
11 | NCI-H2085 (lung adenocarcinoma, adherent) | 0.87 | < 5.70 | 0.783 | 5.34 | 0.828 | 4.86 | – | –
12 | NCI-H2122 (lung adenocarcinoma, adherent) | – | – | 0.793 | 5.37 | 0.945 | < 4.70 | 0.875 | 5.76
13 | NUGC-3 (stomach, adherent) | 0.911 | < 5.70 | 0.729 | 5.51 | 0.914 | < 4.70 | – | –
14 | OAW-28 (ovary, adherent) | 0.729 | 6.17 | 0.822 | 5.10 | 0.764 | 5.04 | – | –
15 | OSC-19 (head and neck, adherent) | 0.953 | < 5.70 | 0.76 | 5.44 | 0.879 | < 4.70 | – | –
16 | OVCAR-3 (ovary, adherent) | 0.926 | < 5.70 | 0.756 | 5.43 | 0.984 | < 4.70 | – | –
17 | PA-TU-8988T (pancreas, adherent) | – | – | 0.727 | 5.56 | 0.897 | < 4.70 | 0.968 | < 5.70
18 | PANC-10-05 (pancreas, adherent) | 0.953 | < 5.70 | 0.778 | 5.28 | 0.903 | < 4.70 | – | –
19 | PC-3 (prostate, adherent) | 0.98 | < 5.70 | 0.724 | 5.50 | 0.702 | 5.28 | – | –
20 | PWR-1E (prostate, adherent) | 0.969 | < 5.70 | 0.757 | 5.46 | – | – | – | –
21 | RMG-I (ovary, adherent) | – | – | 0.683 | 5.65 | 0.844 | 4.74 | 0.929 | < 5.70
22 | SCC-4 (head and neck, adherent) | – | – | 0.863 | < 5.00 | 0.879 | < 4.70 | 0.968 | < 5.70
23 | SK-MEL-24 (melanoma, adherent) | – | – | 0.772 | 5.33 | 0.795 | 4.94 | 0.969 | < 5.70
24 | SW1990 (pancreas, adherent) | – | – | 0.747 | 5.44 | 0.97 | < 4.70 | 0.959 | < 5.70
25 | U251 (glioma, adherent) | – | – | 0.698 | 5.66 | 0.84 | 4.89 | 0.981 | < 5.70
26 | U-2-OS (osteosarcoma, adherent) | – | – | 0.728 | 5.53 | 0.976 | < 4.70 | 0.98 | < 5.70
27 | UM-UC-3 (bladder, adherent) | – | – | 0.666 | 5.76 | 0.685 | 5.40 | 0.953 | < 5.70
28 | UMC-11 (lung carcinoid, adherent) | – | – | 0.912 | < 5.00 | 0.936 | < 4.70 | 0.982 | < 5.70
29 | VMRC-MELG (melanoma, adherent) | – | – | 0.937 | < 5.00 | 0.937 | < 4.70 | 0.943 | < 5.70
30 | WM278 (melanoma, adherent) | – | – | 0.768 | 5.38 | 0.756 | 5.12 | 0.98 | < 5.70
